The text below walks through data of article PMC9911399, “Two distinct binding modes provide the RNA-binding protein RbFox with extraordinary sequence specificity”.

Substitutions are numbered along the chain they refer to; changes in the protein carry UniProt numbers. The list shows a part of the results.

The chains are these.
T1: RBFOX1 RRM RbFoxmut (Fox-RRM*) (Homo sapiens, UniProt Q9NWB1 109-208, R118D;E147R;N151S;E152T)
T1 sequence: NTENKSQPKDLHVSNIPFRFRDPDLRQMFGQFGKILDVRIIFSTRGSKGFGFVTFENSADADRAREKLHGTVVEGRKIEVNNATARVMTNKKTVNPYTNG

B1: ACAAUGU (DNA:RNA)
RNA: GGGAGACCGGAAUUCAGAUUGUCCACAAUGUUUAAAUCCCGUCGUAGCCACCA
DNA 1: CAATCTGAATTCCGGTCTCCC
DNA 2: TGGTGGCTACGACGGGATT
B2: CCAUGCG (DNA:RNA)
RNA: B1 RNA with A25C, A28U, U29G, G30C, U31G
DNA 1: CAATCTGAATTCCGGTCTCCC
DNA 2: TGGTGGCTACGACGGGATT
B3: GCAUUGU (DNA:RNA)
RNA: B1 RNA with A25G, A28U
DNA 1: CAATCTGAATTCCGGTCTCCC
DNA 2: TGGTGGCTACGACGGGATT
B4: AUUGGUA (DNA:RNA)
RNA: B1 RNA with C26U, A27U, A28G, U29G, G30U, U31A
DNA 1: CAATCTGAATTCCGGTCTCCC
DNA 2: TGGTGGCTACGACGGGATT
B5: UAUCUUC (DNA:RNA)
RNA: B1 RNA with A25U, C26A, A27U, A28C, G30U, U31C
DNA 1: CAATCTGAATTCCGGTCTCCC
DNA 2: TGGTGGCTACGACGGGATT
B6: CAGCCGA (DNA:RNA)
RNA: B1 RNA with A25C, C26A, A27G, A28C, U29C, U31A
DNA 1: CAATCTGAATTCCGGTCTCCC
DNA 2: TGGTGGCTACGACGGGATT
B7: AGUACUC (DNA:RNA)
RNA: B1 RNA with C26G, A27U, U29C, G30U, U31C
DNA 1: CAATCTGAATTCCGGTCTCCC
DNA 2: TGGTGGCTACGACGGGATT
B8: GUGGAAC (DNA:RNA)
RNA: GGGAGACCGGAAUUCAGAUUGUCCGUGGAACUUAAAUCCCGUCGUAGCCACCA
DNA 1: CAATCTGAATTCCGGTCTCCC
DNA 2: TGGTGGCTACGACGGGATT
B9: AGUAAGG (DNA:RNA)
RNA: B1 RNA with C26G, A27U, U29A, U31G
DNA 1: CAATCTGAATTCCGGTCTCCC
DNA 2: TGGTGGCTACGACGGGATT
B10: GUACGUU (DNA:RNA)
RNA: B1 RNA with A25G, C26U, A28C, U29G, G30U
DNA 1: CAATCTGAATTCCGGTCTCCC
DNA 2: TGGTGGCTACGACGGGATT
B11: CGUAUUA (DNA:RNA)
RNA: B1 RNA with A25C, C26G, A27U, G30U, U31A
DNA 1: CAATCTGAATTCCGGTCTCCC
DNA 2: TGGTGGCTACGACGGGATT
B12: AGAUGGA (DNA:RNA)
RNA: B1 RNA with C26G, A28U, U29G, U31A
DNA 1: CAATCTGAATTCCGGTCTCCC
DNA 2: TGGTGGCTACGACGGGATT
B13: GCAGCGA (DNA:RNA)
RNA: B1 RNA with A25G, A28G, U29C, U31A
DNA 1: CAATCTGAATTCCGGTCTCCC
DNA 2: TGGTGGCTACGACGGGATT
B14: AGUUUGC (DNA:RNA)
RNA: B1 RNA with C26G, A27U, A28U, U31C
DNA 1: CAATCTGAATTCCGGTCTCCC
DNA 2: TGGTGGCTACGACGGGATT
B15: GGACCUU (DNA:RNA)
RNA: B1 RNA with A25G, C26G, A28C, U29C, G30U
DNA 1: CAATCTGAATTCCGGTCTCCC
DNA 2: TGGTGGCTACGACGGGATT
B16: AUGUAGC (DNA:RNA)
RNA: B8 RNA with G25A, G28U, A30G
DNA 1: CAATCTGAATTCCGGTCTCCC
DNA 2: TGGTGGCTACGACGGGATT
B17: UGGCGAG (DNA:RNA)
RNA: B8 RNA with G25U, U26G, G28C, A29G, C31G
DNA 1: CAATCTGAATTCCGGTCTCCC
DNA 2: TGGTGGCTACGACGGGATT
B18: AUAUGUC (DNA:RNA)
RNA: B1 RNA with C26U, A28U, U29G, G30U, U31C
DNA 1: CAATCTGAATTCCGGTCTCCC
DNA 2: TGGTGGCTACGACGGGATT
B19: CAUAAGU (DNA:RNA)
RNA: B1 RNA with A25C, C26A, A27U, U29A
DNA 1: CAATCTGAATTCCGGTCTCCC
DNA 2: TGGTGGCTACGACGGGATT
B20: UAGCCUG (DNA:RNA)
RNA: B8 RNA with G25U, U26A, G28C, A29C, A30U, C31G
DNA 1: CAATCTGAATTCCGGTCTCCC
DNA 2: TGGTGGCTACGACGGGATT
B21: ACGUGAG (DNA:RNA)
RNA: B1 RNA with A27G, A28U, U29G, G30A, U31G
DNA 1: CAATCTGAATTCCGGTCTCCC
DNA 2: TGGTGGCTACGACGGGATT
B22: UAAUCAC (DNA:RNA)
RNA: B8 RNA with G25U, U26A, G27A, G28U, A29C
DNA 1: CAATCTGAATTCCGGTCTCCC
DNA 2: TGGTGGCTACGACGGGATT
B23: GGUCGGC (DNA:RNA)
RNA: B8 RNA with U26G, G27U, G28C, A29G, A30G
DNA 1: CAATCTGAATTCCGGTCTCCC
DNA 2: TGGTGGCTACGACGGGATT
B24: UAAAAAG (DNA:RNA)
RNA: B1 RNA with A25U, C26A, U29A, G30A, U31G
DNA 1: CAATCTGAATTCCGGTCTCCC
DNA 2: TGGTGGCTACGACGGGATT
B25: UCCUUGC (DNA:RNA)
RNA: B1 RNA with A25U, A27C, A28U, U31C
DNA 1: CAATCTGAATTCCGGTCTCCC
DNA 2: TGGTGGCTACGACGGGATT
B26: CGAUUAA (DNA:RNA)
RNA: B1 RNA with A25C, C26G, A28U, G30A, U31A
DNA 1: CAATCTGAATTCCGGTCTCCC
DNA 2: TGGTGGCTACGACGGGATT
B27: UUCUCGC (DNA:RNA)
RNA: B8 RNA with G25U, G27C, G28U, A29C, A30G
DNA 1: CAATCTGAATTCCGGTCTCCC
DNA 2: TGGTGGCTACGACGGGATT
B28: UCGUUUU (DNA:RNA)
RNA: B1 RNA with A25U, A27G, A28U, G30U
DNA 1: CAATCTGAATTCCGGTCTCCC
DNA 2: TGGTGGCTACGACGGGATT
B29: GUGGUCG (DNA:RNA)
RNA: B8 RNA with A29U, A30C, C31G
DNA 1: CAATCTGAATTCCGGTCTCCC
DNA 2: TGGTGGCTACGACGGGATT
B30: CCCUCGC (DNA:RNA)
RNA: B1 RNA with A25C, A27C, A28U, U29C, U31C
DNA 1: CAATCTGAATTCCGGTCTCCC
DNA 2: TGGTGGCTACGACGGGATT
B31: CCCUAAC (DNA:RNA)
RNA: B8 RNA with G25C, U26C, G27C, G28U
DNA 1: CAATCTGAATTCCGGTCTCCC
DNA 2: TGGTGGCTACGACGGGATT

In the test the target is T1, RBFOX1 RRM RbFoxmut (Fox-RRM*). The experiment in a line: EMSA; HiTS-Eq, 1 nM pool, 10 min; buffer printed only for the single-RNA assays: 10 mM Tris pH 7.5, 150 mM NaCl, 3.4 mM EDTA, 0.001% NP-40, 30 C. The following applies: tags: His6 N-terminal (pET28a); label: 5' 32P. An outline of the steps:
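Purified RbFox RRM (wild type or mutant) was equilibrated for 10 min in 50 µL with 1 nM of a 5′-radiolabelled pool of RNA with 7 randomized nucleotides, its flanks annealed to DNA oligonucleotides, across increasing protein concentrations. Free RNA was separated by 8% native PAGE, excised, reverse-transcribed, PCR-barcoded and sequenced on an Illumina HiSeq 2500. Relative association constants came from read-count changes of each variant against the control reaction, normalised to the cognate motif.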
Take B1: the binding signal is 0.0881 KA relative to UGCAUGU.
For the molecule B2, the binding signal is 0.143 KA relative to UGCAUGU.
With B3 the figure was 0.228 KA relative to UGCAUGU.
In the case of B4, the binding signal is 0.171 KA relative to UGCAUGU.
With B5 the figure was 0.0639 KA relative to UGCAUGU; with B6, 0.0846 KA relative to UGCAUGU; with B7, 0.0527 KA relative to UGCAUGU.
B8: the binding signal was 0.112 KA relative to UGCAUGU.
Turning to B9, the binding signal was 0.0904 KA relative to UGCAUGU.
In the case of B10, the binding signal was 0.179 KA relative to UGCAUGU.
As for B11, the binding signal was 0.126 KA relative to UGCAUGU.
With B12 the figure was 0.0683 KA relative to UGCAUGU.
Take B13: the binding signal was 0.0835 KA relative to UGCAUGU.
For B14, the binding signal was 0.162 KA relative to UGCAUGU.
With B15 the figure was 0.0608 KA relative to UGCAUGU; with B16, 0.153 KA relative to UGCAUGU; with B17, 0.131 KA relative to UGCAUGU.
For B18, the binding signal is 0.222 KA relative to UGCAUGU.
Regarding B19, the binding signal is 0.135 KA relative to UGCAUGU.
With B20, the binding signal was 0.14 KA relative to UGCAUGU.
Then B21, with 0.13 KA relative to UGCAUGU.
B22: the binding signal is 0.0502 KA relative to UGCAUGU.
With B23, the binding signal was 0.0997 KA relative to UGCAUGU.
As for B24, the binding signal is 0.0843 KA relative to UGCAUGU.
Regarding B25, the binding signal is 0.108 KA relative to UGCAUGU.
With B26, the binding signal was 0.128 KA relative to UGCAUGU.
As for B27, the binding signal was 0.0961 KA relative to UGCAUGU.
Regarding B28, the binding signal was 0.0973 KA relative to UGCAUGU.
For the molecule B29, the binding signal was 0.311 KA relative to UGCAUGU.
B30: the binding signal was 0.12 KA relative to UGCAUGU.
In the case of B31, the binding signal was 0.0862 KA relative to UGCAUGU.
